The chains are these.
B1: LINE1-full (parent)
chain: UACGUAGGUGGUUUUCCCCUGAUAGUGCUAAGGGGGCCUGGAAGUUUGGACUGGGCAGAGCUCAACACAGCGUGGCAAAGUGGCUGUGGCUAGACUGCCUCUCUGGAUUCCUCGUCACUCAGCAGGGCAUCUCUGAGAGAAAUGCC

Read counts are not given, so values of variants with three or more changes are uncertain.

The variants in the data set derive from B1. Kind of data set: self-cleavage, relative activity (ratio to wild type); higher = more cleavage; in vitro, sequencing; the parent is a self-cleaving ribozyme.
With U46C U132C A140G, the self-cleavage came to 1.25.

Take U47C U52C G72U U102C U108C: the self-cleavage turned out to be 0.77. On to U46C A77C U132C, for which the self-cleavage stood at 1.5. Under U47C A64U A79G U130C stands 0.33; under U46A A69G U100C A124U A141G, 1; under A50G A94G A124U, 0.

With U47C A78G U96A, the self-cleavage was found to be 0.13. Under A50G A69G U100C C101U stands 0. Under A50G A92U A136U stands 0.98; under U47C C90U U108C, 0.02; under U47C A78G A124G, 2.63. Under U47G A67G A77G A79G stands 1.31; under U46G U62C A69U A77G, 0.04. In the case of U47A A78G G88A, the self-cleavage was 0.09. U46C U134C A142G: the self-cleavage was found to be 0.63. Under U47G U81A A138G stands 1.64; under U47C U108C G127A, 2.51. On to U47C U52C A124U A141G, for which the self-cleavage turned out to be 1.7. Under A50G G80U U85A A136G stands 0.02; under U47A A92U A129G U130C, 0.19; under A50G A57G A77G, 0. Consider G48U A77G A94U A138G, for which the self-cleavage amounted to 0.32. Under U46A U104A A136G stands 1.41; under U46C A79U G89A U100A, 0.06.

Take U46C G48A U104C A124G: the self-cleavage came to 0.97.

In the case of U46C U85C G86A U115A, the self-cleavage came to 0.09. U46C A79G U104C: the self-cleavage is 1.2. Under U46C U52A A64C A124G stands 0.63; under U46C G58U C116U G125U, 0.03; under U46C A67U A69U C118U U119C, 0.03. Under G48U A69G C123U stands 0.31; under U47C U143C C145A, 2.02. Under U46C U62A C103U A141G stands 0.06; under U47C A67C U85C U87A U115A A138G, 0; under U46C A57G U73C, 1.84. Consider U46C A79U U112C, for which the self-cleavage was found to be 0. As to U46C G49U U100C A117G, the self-cleavage came to 2.24.

For U46C U73A U102C, the self-cleavage was 1.69. For U47C A67U A77U U104C the value was 0.21. Under U47C U62A G88C stands 0; under U46C A142G U143C, 1.31; under U46A U115C U132C, 1.96. Regarding U47C G54A U62G, the self-cleavage came out at 0.1.

Regarding U46C G93A C99U C113U U115C, the self-cleavage came to 0.06.

Turning to U46C A50G A59G, the self-cleavage amounted to 0.2. Under A50G G127A A140G U143G stands 0.33. Under U46C G122U A138G stands 1.6; under G48U A69G U85C, 1.1. Under G49U U112A A121G stands 0.31; under U46C U62G C103A, 0.03.

Turning to U46C A50U U119C U132C, the self-cleavage was found to be 2.19. Under U47C U52C A107G stands 0; under U46C A69G A138G A142G, 2.76; under U47A A57U U96G, 0.07. As for U47A G60A A117U, the self-cleavage was 0.03. Under U47C G70A C113U stands 0.11; under U46C U96C A142G, 0.29. For U47A U52A U109C A136U the value was 1.36; for U47C U104C G137A, 1.2. In the case of A50G A92U U134C, the self-cleavage amounted to 0.53.

As for U47C A57U C99U A141G, the self-cleavage came to 0.08. Under A50G A94G U109A A138G stands 0.44; under U46A U87C U134G, 0.33; under U46A U100C U115G, 1.24. For G48A A57G A140G the value was 0.48. Take A50G C111U U115C: the self-cleavage was determined as 1.43.

On to G49U C110U U130C, for which the self-cleavage was 1.09. Under A50G C76U U134G stands 1.63; under U46A U85C G97A A121U, 0.05; under G48U U87A U96C A107G, 0.07. For U47C A59G U85C the value was 0.

Regarding G48A G72C A94G U115C, the self-cleavage is 0.28.

With U47C A64G A65U U115C A138U, the self-cleavage is 0. For U46C A50U A65G the value was 0; for U46C A78G A107U A124U, 1.66. Under A50G A78G A117G stands 1.15; under U47C A57U A67C, 0.

With U47C A64G A65G C84U C128U, the self-cleavage was 0.03. Consider U47C G49C A121U, for which the self-cleavage is 1.38. Under U46A A64U C113A U143C stands 0.37; under U46C A129U U143A, 1.38. Under U47A U85C C90U G114U stands 0.01; under U47C U91A A129G, 0.74; under U47C U62C G127A, 0.09. Under A50G C128U A129G U143C stands 1.15; under G49A U62C U119C, 0.06; under U46C A57U A77U, 0.18. With A50G A64U A107G, the self-cleavage is 0.82.

With U47G A92G A121U, the self-cleavage was 0.18. For U47C U62C U115C the value was 0.21. Regarding A50G G53A A57G A77G A117G, the self-cleavage amounted to 0. For G48A U100C U134C G139A U143A the value was 2.57; for U47C G82U A136U, 1.62; for A50G A79U A142G, 1.17. For A50G A92G G125U the value was 0; for U46C U112A A136U, 1.74.

In the case of U46C G88U U102A, the self-cleavage was 0.09.

Take U46C A69G A94G: the self-cleavage is 1.62. Take U46A A65U U100C: the self-cleavage turned out to be 0.32. As for U46C U73A A140G, the self-cleavage is 1.24. With A50G A78G A124G, the self-cleavage came out at 0.59.

For U47A U119A U143A, the self-cleavage worked out at 1.62. Under A50G G83A U100C C110U A129G stands 0.82; under U46C U73A A142G, 1.84; under U47A A92U U130A, 0.63. Under U47A A107G U134C stands 0.66; under U46C C61A A69G U134A, 0.06; under G48A A59G U100C U112A, 0.09. For G48A A67G U85C the value was 0.14; for U46C G54A G55U A67G, 0.03; for U47A U96A A107G A141G, 0.09. Consider U46A U62C A142G, for which the self-cleavage was determined as 0.04. For the variant U47C A64U U100C A107U U119C A124U, the self-cleavage was determined as 1.05. For G49A U81C U130C A140U the value was 1.68; for U47A U102C A117G, 1.19. Turning to U47G U115C A124G, the self-cleavage was determined as 0.38. In the case of A50G A79G U143G, the self-cleavage was determined as 0.78. For U47A C63U U112A the value was 0.25; for U46G U100C U132C A142G, 0.38; for U47C A69U A77U A142G, 0.08.

Consider U46A A67G U81A A121U A140G, for which the self-cleavage worked out at 0.18. Regarding U47A A78G U96C U102A, the self-cleavage is 0. For U46C A50U U73A C131U the value was 1.7; for U46C G114A A140G, 0.87; for U46C A79G A138C, 1.84. For U46C U52C G82A G126A A138U U143A, the self-cleavage worked out at 1.15.

In the case of G48A A64G U85C G126C, the self-cleavage amounted to 0.05.

Regarding U46C U47C U96A, the self-cleavage stood at 0.24. Under U46C A65G A138G stands 0. For A50G A59U U132A the value was 0.6; for U46C A121G C123A, 0.72; for G49A U62C U112C, 0.06. For U47C A65G A77U the value was 0.1; for G48A U130C G139U, 1.02. A50G A69G A77U: the self-cleavage turned out to be 0. As for U46A A129G A141G, the self-cleavage worked out at 1.55.

On to U47C A78G C113U U130A, for which the self-cleavage was 1.48. U47C U62C U102C: the self-cleavage stood at 0. For A50G G54A A57G U112C A124U the value was 0.

Consider U47C U87A A141G, for which the self-cleavage stood at 0.21. Under U47C U87A A138G stands 0.09; under A50G C101U U102C U132C, 0.82.

With U47C G54U U134C, the self-cleavage turned out to be 1.84.

Take U47A A69U A129U: the self-cleavage was 0.05.

In the case of U46C U100A A117G, the self-cleavage was found to be 0.54.

Take U47A U102A U115A: the self-cleavage was 1.17. Regarding A50G G60A A79G A136G, the self-cleavage turned out to be 0. For U47C U91A A124G the value was 0.86; for G48A A107G U108C, 1.27; for U47C G82A U119C A142U, 2.53.

As for U47C A77G A124U, the self-cleavage amounted to 0.

As to A50G A57G A69G A140G, the self-cleavage was 0. On to U47A U52A A77U U109A A138G, for which the self-cleavage came to 1.31. Under U47C C128U A140G stands 1.3. Under U47C U62C A107U stands 0.07; under U47A U119C A124U U130C, 1.96. For U46C C116A U119C the value was 1.43. In the case of U46C C76U U102A, the self-cleavage was found to be 0.7. For U47C A94G U112C the value was 0; for U46A G86A U112A U134C, 0.03. For U47C U91C U115A U143C the value was 2.21. As for U47C U96A A141G U143C, the self-cleavage was 0.06. Under U47C A107G C123A A124G stands 0.51; under U46G A57G A140G, 0.22; under U47C A64G C66A A78U U109A U132C A142G, 0.

On to U47G A78G A117C A141G, for which the self-cleavage is 1.41.

In the case of U46C U52A A79G U130C, the self-cleavage worked out at 0.92.

(Values after the RNAGym collection of RNA variant scans (doi:10.7554/elife.90254).)
